The supplement of paper PMC12217912
This is one part of the list. The full chains were built here from the parent and the listed change. Values near 0.05 are background.

B1: TEV protease; numbered along this chain (parent)
chain: MGESLFKGPRDYNPISSSICHLTNESDGHTTSLYGIGFGPFIITNKHLFRRNNGTLVVQSLHGVFKVKDTTTLQQHLVDGRDMIIIRMPKDFPPFPQKLKFREPQREERICLVTTNFQTKSMSSMVSDTSCTFPSGDGIFWKHWIQTKDGQCGSPLVSTRDGFIVGIHSASNFTNTNNYFTSVPKNFMELLTNQEAQQWVSGWRLNADSVLWGGHKVFMVKPEEPFQPVKEATQL

Variants of: B1
Test: raw area under fraction-flipped curve 0-4 h after induction (AUC4h, not background-subtracted), DNA-recorder readout of cleavage of the substrate (dimensionless); higher = more cleavage of the substrate by the protease variant
Details: temperature: 34 °C; time window: 0-4 h after rhamnose induction
Procedure: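 In vivo DNA recorder in E. coli TOP10(DE3) ΔrhaA at 34 °C. Each TEVp single-site mutant (parent TEVp 0) is paired with a single-site variant of the 7-mer TEVs (canonical ENLYFQ|S). The substrate sits between flexible linkers in a Bxb1-sfGFP-TEVs-SsrA fusion, so cleavage stabilises Bxb1 and speeds flipping of a recombination array, read by NGS. The value is the raw area under the fraction-flipped curve over 0-4 h after rhamnose induction (AUC4h), with ≥20 reads per time point. It is not background-subtracted; inactive controls average about 0.047.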
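Further: Bxb1 expression induced with 0.2% (w/v) L-rhamnose at OD600 near 0.5, cultures sampled hourly, flipped fraction per protease–substrate barcode pair counted by paired-end Illumina sequencing.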

Variant: MGESLFKGPRDYNPISSSICHLTNESDGHTTSLYGIGFGPFIRTNKHLFRRNNGTLVVQSLHGVFKVKDTTTLQQHLVDGRDMIIIRMPKDFPPFPQKLKFREPQREERICLVTTNFQTKSMSSMVSDTSCTFPSGDGIFWKHWIQTKDGQCGSPLVSTRDGFIVGIHSASNFTNTNNYFTSVPKNFMELLTNQEAQQWVSGWRLNADSVLWGGHKVFMVKPEEPFQPVKEATQL [I43R]
- area with substrate ENAYFQS: 0.0542
- area with substrate ENCYFQS: 0.0219
- area with substrate ENDYFQS: 0.0463
- area with substrate ENEYFQS: 0.0418
- area with substrate ENFYFQS: 0.0477
- area with substrate ENGYFQS: 0.0481
- area with substrate ENHYFQS: 0.0687
- area with substrate ENKYFQS: 0.0535
- area with substrate ENMYFQS: 0.0345
- area with substrate ENNYFQS: 0.0469
- area with substrate ENPYFQS: 0.0469
- area with substrate ENQYFQS: 0.0357
- area with substrate ENRYFQS: 0.0458
- area with substrate ENSYFQS: 0.0432
- area with substrate ENTYFQS: 0.0432
- area with substrate ENYYFQS: 0.0416

Variant: MGESLFKGPRDYNPISSSICHLTNESDGHTTSLYGIGFGPFIIANKHLFRRNNGTLVVQSLHGVFKVKDTTTLQQHLVDGRDMIIIRMPKDFPPFPQKLKFREPQREERICLVTTNFQTKSMSSMVSDTSCTFPSGDGIFWKHWIQTKDGQCGSPLVSTRDGFIVGIHSASNFTNTNNYFTSVPKNFMELLTNQEAQQWVSGWRLNADSVLWGGHKVFMVKPEEPFQPVKEATQL [T44A]
- area with substrate ENAYFQS: 0.0526
- area with substrate ENCYFQS: 0.0701
- area with substrate ENDYFQS: 0.0668
- area with substrate ENEYFQS: 0.0631
- area with substrate ENFYFQS: 0.0551
- area with substrate ENGYFQS: 0.0544
- area with substrate ENHYFQS: 0.0593
- area with substrate ENMYFQS: 0.0716
- area with substrate ENNYFQS: 0.0542
- area with substrate ENQYFQS: 0.0565
- area with substrate ENRYFQS: 0.0605
- area with substrate ENSYFQS: 0.0544
- area with substrate ENTYFQS: 0.0609
- area with substrate ENVYFQS: 0.0656
- area with substrate ENYYFQS: 0.0623

Variant: MGESLFKGPRDYNPISSSICHLTNESDGHTTSLYGIGFGPFIIFNKHLFRRNNGTLVVQSLHGVFKVKDTTTLQQHLVDGRDMIIIRMPKDFPPFPQKLKFREPQREERICLVTTNFQTKSMSSMVSDTSCTFPSGDGIFWKHWIQTKDGQCGSPLVSTRDGFIVGIHSASNFTNTNNYFTSVPKNFMELLTNQEAQQWVSGWRLNADSVLWGGHKVFMVKPEEPFQPVKEATQL [T44F]
- area with substrate ENAYFQS: 0.0602
- area with substrate ENCYFQS: 0.0576
- area with substrate ENDYFQS: 0.0525
- area with substrate ENEYFQS: 0.0575
- area with substrate ENFYFQS: 0.0513
- area with substrate ENGYFQS: 0.0397
- area with substrate ENHYFQS: 0.0592
- area with substrate ENIYFQS: 0.0497
- area with substrate ENMYFQS: 0.0588
- area with substrate ENNYFQS: 0.0598
- area with substrate ENPYFQS: 0.0452
- area with substrate ENQYFQS: 0.0462
- area with substrate ENSYFQS: 0.0542
- area with substrate ENTYFQS: 0.039
- area with substrate ENVYFQS: 0.0536
- area with substrate ENWYFQS: 0.038
- area with substrate ENYYFQS: 0.0483

Variant: MGESLFKGPRDYNPISSSICHLTNESDGHTTSLYGIGFGPFIITNSHLFRRNNGTLVVQSLHGVFKVKDTTTLQQHLVDGRDMIIIRMPKDFPPFPQKLKFREPQREERICLVTTNFQTKSMSSMVSDTSCTFPSGDGIFWKHWIQTKDGQCGSPLVSTRDGFIVGIHSASNFTNTNNYFTSVPKNFMELLTNQEAQQWVSGWRLNADSVLWGGHKVFMVKPEEPFQPVKEATQL [K46S]
- area with substrate ENAYFQS: 0.0628
- area with substrate ENCYFQS: 0.0614
- area with substrate ENDYFQS: 0.0709
- area with substrate ENEYFQS: 0.062
- area with substrate ENFYFQS: 0.0605
- area with substrate ENGYFQS: 0.0552
- area with substrate ENHYFQS: 0.0104
- area with substrate ENIYFQS: 0.107
- area with substrate ENKYFQS: 0.102
- area with substrate ENMYFQS: 0.0657
- area with substrate ENNYFQS: 0.0561
- area with substrate ENQYFQS: 0.0621
- area with substrate ENRYFQS: 0.0704
- area with substrate ENSYFQS: 0.0762
- area with substrate ENTYFQS: 0.0647
- area with substrate ENVYFQS: 0.0566
- area with substrate ENWYFQS: 0.0567
- area with substrate ENYYFQS: 0.0353

Variant: MGESLFKGPRDYNPISSSICHLTNESDGHTTSLYGIGFGPFIITNKHAFRRNNGTLVVQSLHGVFKVKDTTTLQQHLVDGRDMIIIRMPKDFPPFPQKLKFREPQREERICLVTTNFQTKSMSSMVSDTSCTFPSGDGIFWKHWIQTKDGQCGSPLVSTRDGFIVGIHSASNFTNTNNYFTSVPKNFMELLTNQEAQQWVSGWRLNADSVLWGGHKVFMVKPEEPFQPVKEATQL [L48A]
- area with substrate ENAYFQS: 0.0701
- area with substrate ENCYFQS: 0.0608
- area with substrate ENDYFQS: 0.0678
- area with substrate ENEYFQS: 0.0628
- area with substrate ENFYFQS: 0.0505
- area with substrate ENGYFQS: 0.0735
- area with substrate ENHYFQS: 0.0617
- area with substrate ENIYFQS: 0.0762
- area with substrate ENKYFQS: 0.0604
- area with substrate ENMYFQS: 0.0675
- area with substrate ENNYFQS: 0.051
- area with substrate ENPYFQS: 0.0699
- area with substrate ENQYFQS: 0.0578
- area with substrate ENSYFQS: 0.0634
- area with substrate ENTYFQS: 0.0778
- area with substrate ENVYFQS: 0.0678
- area with substrate ENWYFQS: 0.0568

Variant: MGESLFKGPRDYNPISSSICHLTNESDGHTTSLYGIGFGPFIITNKHCFRRNNGTLVVQSLHGVFKVKDTTTLQQHLVDGRDMIIIRMPKDFPPFPQKLKFREPQREERICLVTTNFQTKSMSSMVSDTSCTFPSGDGIFWKHWIQTKDGQCGSPLVSTRDGFIVGIHSASNFTNTNNYFTSVPKNFMELLTNQEAQQWVSGWRLNADSVLWGGHKVFMVKPEEPFQPVKEATQL [L48C]
- area with substrate ENAYFQS: 0.0651
- area with substrate ENCYFQS: 0.0612
- area with substrate ENDYFQS: 0.0603
- area with substrate ENEYFQS: 0.0592
- area with substrate ENFYFQS: 0.0677
- area with substrate ENGYFQS: 0.0571
- area with substrate ENHYFQS: 0.0609
- area with substrate ENKYFQS: 0.0639
- area with substrate ENPYFQS: 0.0539
- area with substrate ENRYFQS: 0.0594
- area with substrate ENSYFQS: 0.0588
- area with substrate ENTYFQS: 0.0584
- area with substrate ENYYFQS: 0.0557

Variant: MGESLFKGPRDYNPISSSICHLTNESDGHTTSLYGIGFGPFIITNKHEFRRNNGTLVVQSLHGVFKVKDTTTLQQHLVDGRDMIIIRMPKDFPPFPQKLKFREPQREERICLVTTNFQTKSMSSMVSDTSCTFPSGDGIFWKHWIQTKDGQCGSPLVSTRDGFIVGIHSASNFTNTNNYFTSVPKNFMELLTNQEAQQWVSGWRLNADSVLWGGHKVFMVKPEEPFQPVKEATQL [L48E]
- area with substrate ENAYFQS: 0.0589
- area with substrate ENCYFQS: 0.0676
- area with substrate ENDYFQS: 0.0608
- area with substrate ENFYFQS: 0.0478
- area with substrate ENGYFQS: 0.0576
- area with substrate ENIYFQS: 0.0636
- area with substrate ENNYFQS: 0.0619
- area with substrate ENPYFQS: 0.0509
- area with substrate ENQYFQS: 0.0573
- area with substrate ENSYFQS: 0.0557
- area with substrate ENWYFQS: 0.0606

Variant: MGESLFKGPRDYNPISSSICHLTNESDGHTTSLYGIGFGPFIITNKHFFRRNNGTLVVQSLHGVFKVKDTTTLQQHLVDGRDMIIIRMPKDFPPFPQKLKFREPQREERICLVTTNFQTKSMSSMVSDTSCTFPSGDGIFWKHWIQTKDGQCGSPLVSTRDGFIVGIHSASNFTNTNNYFTSVPKNFMELLTNQEAQQWVSGWRLNADSVLWGGHKVFMVKPEEPFQPVKEATQL [L48F]
- area with substrate ENAYFQS: 0.0394
- area with substrate ENDYFQS: 0.066
- area with substrate ENEYFQS: 0.0654
- area with substrate ENGYFQS: 0.0534
- area with substrate ENHYFQS: 0.0599
- area with substrate ENKYFQS: 0.0594
- area with substrate ENNYFQS: 0.0652
- area with substrate ENPYFQS: 0.0548
- area with substrate ENQYFQS: 0.0759
- area with substrate ENRYFQS: 0.079
- area with substrate ENSYFQS: 0.068
- area with substrate ENTYFQS: 0.0608
- area with substrate ENVYFQS: 0.092
- area with substrate ENWYFQS: 0.0438
- area with substrate ENYYFQS: 0.0695

Variant: MGESLFKGPRDYNPISSSICHLTNESDGHTTSLYGIGFGPFIITNKHGFRRNNGTLVVQSLHGVFKVKDTTTLQQHLVDGRDMIIIRMPKDFPPFPQKLKFREPQREERICLVTTNFQTKSMSSMVSDTSCTFPSGDGIFWKHWIQTKDGQCGSPLVSTRDGFIVGIHSASNFTNTNNYFTSVPKNFMELLTNQEAQQWVSGWRLNADSVLWGGHKVFMVKPEEPFQPVKEATQL [L48G]
- area with substrate ENAYFQS: 0.0555
- area with substrate ENCYFQS: 0.0631
- area with substrate ENDYFQS: 0.0637
- area with substrate ENEYFQS: 0.0616
- area with substrate ENGYFQS: 0.0729
- area with substrate ENHYFQS: 0.0646
- area with substrate ENKYFQS: 0.0691
- area with substrate ENMYFQS: 0.0727
- area with substrate ENNYFQS: 0.069
- area with substrate ENPYFQS: 0.0516
- area with substrate ENQYFQS: 0.0621
- area with substrate ENRYFQS: 0.068
- area with substrate ENSYFQS: 0.0629
- area with substrate ENVYFQS: 0.0659
- area with substrate ENYYFQS: 0.0688
